± gives the standard deviation of the averaged measurements. The list shows a part of the results.

The source of these data is the supplement of paper PMC11417369.

For the experiment, the system named is PfAP2-LT AP2 domain (GST-tagged). The experiment can be described thus: gcPBM binding intensity (ln(normalized median fluorescence intensity)); higher = stronger DNA binding. Summed up:
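Binding intensity is defined as the maximum Masliner-normalised natural-log median intensity across replicate spots for either probe orientation. It was measured on an Agilent 4 × 180k array of primer-extended double-stranded 36-bp intergenic genomic probes and negative controls, to which GST-tagged P. falciparum DNA-binding domains made in E. coli were applied for 1 h in 1× PBS with 1% milk, 0.2 mg/ml BSA, 0.5% salmon testes DNA and 0.03% Triton X-100. Detection was by Alexa488 anti-GST antibody and scanning at 488 nm.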
Consider “AAAAAAATCTATATTACACACATATATACCTATATA [CACACA_site7464]”, for which the “gcPBM binding intensity (ln)” value is 8.9 ± 0.39.

For the sequence “TATATATATATAATGTGTACATACTAAATAGAGGAC [XGTACX_site4153]”, the “gcPBM binding intensity (ln)” value was determined as 9.2 ± 0.49.

On to “GAAATGTATAAATCCATACACACATAAATTTTAATA [CACACA_site2364]”, for which the “gcPBM binding intensity (ln)” value is 9.01 ± 0.45.

“TAAATATAAAAATGCACACACACAAAAAAAAAAAAA [CACACA_site895]”: the “gcPBM binding intensity (ln)” value was 9.63 ± 0.49.

With “ATAGGTGAATACTAATATAAATTCAAGAGGGAAAAG [CACACA_negctrl_site720]”, the “gcPBM binding intensity (ln)” value worked out at 8.9 ± 0.55.

For “TTTACATTAAATCACGCACACAAAAAAAAAAAAAAA [CACACA_site2418]”, the “gcPBM binding intensity (ln)” value was 8.94 ± 0.37.

For “TATTTATTTGTGGGGTGTACGAAATTTTTTTTTTTT [XGTACX_site5091]”, the “gcPBM binding intensity (ln)” value was 9.31 ± 0.099.

For “TTTGAATTTTTATATACACACATTATTATATTATAT [CACACA_site1593]”, the “gcPBM binding intensity (ln)” value was 8.96 ± 0.42.

Turning to “ATCTATGGAGCTTATACACACTTTTATATTTTAACA [CACACA_site5994]”, the “gcPBM binding intensity (ln)” value is 8.93 ± 0.46.

“GGAATAAATAATATTATACACACGTATATTATTATA [CACACA_site2435]”: the “gcPBM binding intensity (ln)” value stood at 8.81 ± 0.4.

On to “AAGCTTTCATAAAGATGTACTTTTTAAAAATAATCT [XGTACX_site5725]”, for which the “gcPBM binding intensity (ln)” value is 8.28 ± 0.3.

Turning to “TGTGCATAATTTTGTGCACACCACGCTAATAATTTT [CACACA_site2915]”, the “gcPBM binding intensity (ln)” value was 8.94 ± 0.35.

As for “ATAAATATATGATAAAGTACATATTTATATAATAAA [XGTACX_site7263]”, the “gcPBM binding intensity (ln)” value is 8.71 ± 0.36.

On to “TGATATTATATATATACACACATGTATGTATATATA [CACACA_site1364]”, for which the “gcPBM binding intensity (ln)” value stood at 8.85 ± 0.34.

As to “ATATTTATTTATAATTGTACTAATAATATATTTTAA [XGTACX_site587]”, the “gcPBM binding intensity (ln)” value is 8.42 ± 0.55.

As for “ATGTATCTATATATATGTACACATATTTTAATTAAA [XGTACX_site3673]”, the “gcPBM binding intensity (ln)” value amounted to 8.69 ± 0.39.

For the sequence “AAAATAAAAAATTAATGTACTTAGAATTGTCACTAA [XGTACX_site1346]”, the “gcPBM binding intensity (ln)” value stood at 8.46 ± 0.52.

“TTTTGTAAATATATATGTACATATATATATATATAT [XGTACX_site5803]”: the “gcPBM binding intensity (ln)” value was 9.27 ± 0.2.

Take “ACCTATTTATAATAGTGTACGTACAAATTTGTTTAC [XGTACX_site8176]”: the “gcPBM binding intensity (ln)” value is 9.09 ± 0.39.

With “TTTTTCATGTTTATTAGTACATATATTAAGAATGGA [XGTACX_site3493]”, the “gcPBM binding intensity (ln)” value turned out to be 8.34 ± 0.42.

In the case of “AATTTGTTGAAACACACACACACATACATATATATA [CACACA_site2287]”, the “gcPBM binding intensity (ln)” value worked out at 9.91 ± 0.4.

In the case of “TAAAATAATAAACAGAAGAAATCATTCATATAAAAA [XGTACX_negctrl_site502]”, the “gcPBM binding intensity (ln)” value was found to be 8.54 ± 0.5.

For “AAAGAAAATAACAAAATTTTGAAAACATCACATTCG [CACACA_negctrl_site89]”, the “gcPBM binding intensity (ln)” value was found to be 8.84 ± 0.46.

As to “AAATTAAAGGCATAAAAGAAAATATTTAATAAAAAA [CACACA_negctrl_site1689]”, the “gcPBM binding intensity (ln)” value stood at 8.4 ± 0.6.

As to “ACCAGTTCTTAATACAAATATGTACATATATATATA [GTGCAC_negctrl_site56]”, the “gcPBM binding intensity (ln)” value was found to be 9.03 ± 0.24.

Turning to “TTTTTTTTAATTGTGATACGTATATTATTTAATGAT [CACACA_negctrl_site38]”, the “gcPBM binding intensity (ln)” value was determined as 8.69 ± 0.4.

In the case of ATATATAATAAACAGGTGCATTGTTTTATTTTGTAT, the “gcPBM binding intensity (ln)” value came out at 8.87 ± 0.45.

Turning to “AGCAGGATTAAAAAAAGTACAAGAATTAATATTTAA [XGTACX_site3413]”, the “gcPBM binding intensity (ln)” value came out at 8.54 ± 0.7.

For “AATTATTATCCCCTCACACACAAAAATAAAAAGAAT [CACACA_site2885]”, the “gcPBM binding intensity (ln)” value stood at 9.47 ± 0.31.

Consider “ATTTTTTATTGTTATAAAAAAAAAATTAAACAATTA [CACACA_negctrl_site1077]”, for which the “gcPBM binding intensity (ln)” value came to 8 ± 0.38.

As for “TATATCTATAATATTACACACATATATTTATATTTT [CACACA_site7595]”, the “gcPBM binding intensity (ln)” value is 8.95 ± 0.33.

As for “CAAAAAAAGGAAAAGATACACACCGTAAATTAAAAT [CACACA_site3612]”, the “gcPBM binding intensity (ln)” value was determined as 9.15 ± 0.46.

With “TATTCGTCTTTTTTCTCACACACCCTTTTTATTAAA [CACACA_site2508]”, the “gcPBM binding intensity (ln)” value was 9.09 ± 0.51.

For “AAATTTAGGAACATTATATATATATATATATATATA [CACACA_negctrl_site862]”, the “gcPBM binding intensity (ln)” value stood at 9.47 ± 0.26.

For “TAAAAATAAAGAAAATGTACATAAATAATAATACAT [XGTACX_site2278]”, the “gcPBM binding intensity (ln)” value worked out at 8.89 ± 0.44.

Take “GAACATTTGAAATATGCACACATGTATAAACCTACA [CACACA_site2654]”: the “gcPBM binding intensity (ln)” value was determined as 9.07 ± 0.31.

Regarding “AAAATAATAAAAAAAAAAAAAAAAAAAAAAAAGTAT [TGCATGCA_negctrl_site193]”, the “gcPBM binding intensity (ln)” value was 8.8 ± 0.59.

Take “ATATATCTTCTTTGCACACTTAAAGGGAAGTGATAA [CACACA_site342]”: the “gcPBM binding intensity (ln)” value stood at 8.72 ± 0.3.

Turning to “AAATAAAATAAAACAACACACACGAATGTATAAATA [CACACA_site885]”, the “gcPBM binding intensity (ln)” value was 9.45 ± 0.33.

“AAAAAAATAATAAAATGTACAAATAAACACATAAAG [XGTACX_site5102]”: the “gcPBM binding intensity (ln)” value is 9.05 ± 0.55.

With “ACAAAGATAAAACATAAAATATATCAAACATAAAAT [XGTACX_negctrl_site198]”, the “gcPBM binding intensity (ln)” value stood at 8.96 ± 0.5.

For “AATAAATATAAATACACACCCATATAAATATAAATA [CACACA_site7264]”, the “gcPBM binding intensity (ln)” value is 9.3 ± 0.28.

With “AAAAAAAATACATGTTGTACGGTACAAATATAAAGT [XGTACX_site2863]”, the “gcPBM binding intensity (ln)” value was 9.41 ± 0.4.

For “TAATGTATCTAAAATTGTACAAATATAAATCTAAAT [XGTACX_site1197]”, the “gcPBM binding intensity (ln)” value is 8.68 ± 0.43.

As for “TATATACACGCACATACACACAAATAAAAAAACACC [CACACA_site7578]”, the “gcPBM binding intensity (ln)” value worked out at 9.67 ± 0.31.

Consider “TGTGTTGTAATTAAAACACACATGAAAAAATTAAAA [CACACA_site51]”, for which the “gcPBM binding intensity (ln)” value worked out at 8.9 ± 0.37.

For “GTATTATTCTATAGAAGTACAGTATATTATTATTTA [XGTACX_site5073]”, the “gcPBM binding intensity (ln)” value worked out at 8.56 ± 0.35.

In the case of “TAAGGATTGGTATAAAGTACAGGAGTAAATTGAAAA [XGTACX_site8525]”, the “gcPBM binding intensity (ln)” value was 8.86 ± 0.59.

As to “TACATATTGAATAAGACACACATATATATATATATA [CACACA_site1878]”, the “gcPBM binding intensity (ln)” value was found to be 9.72 ± 0.18.

For “ATATTTTTTTTTTATTGTACCCTCATAAAAGAAAAG [XGTACX_site773]”, the “gcPBM binding intensity (ln)” value is 8.24 ± 0.4.

Turning to “CATACACATATATATTGTACACATATATGTATGTAT [XGTACX_site4030]”, the “gcPBM binding intensity (ln)” value is 8.98 ± 0.31.

In the case of “TACAACAAGTAATGGTGTACATTATATTATGTAATA [XGTACX_site1194]”, the “gcPBM binding intensity (ln)” value is 8.88 ± 0.43.

Regarding “TATAACAATTTTTATGCATGCGACTATAATATTTTT [TGCATGCA_site508]”, the “gcPBM binding intensity (ln)” value came to 8.92 ± 0.42.

“ATATAATTATATTCCATACACACATATATTTAAAGG [CACACA_site2958]”: the “gcPBM binding intensity (ln)” value worked out at 8.86 ± 0.33.

In the case of “AAAAAAATAAATAAATGTACATATATAAAACATTGT [XGTACX_site2136]”, the “gcPBM binding intensity (ln)” value was 8.93 ± 0.46.

On to “AAACGAGAACATAATAAATACATAAATAAATAAATA [GTGCAC_negctrl_site433]”, for which the “gcPBM binding intensity (ln)” value was determined as 9.03 ± 0.51.
